According to PubChem BioAssay AID686978 (National Center for Advancing Translational Sciences (NCATS), 2013):
“And” between values parts separate entries of the source, which are not always exact repeats. Equal values may be shown once. About 64,000 (15%) of roughly 420,000 compounds were called active. The shares of active, inactive and inconclusive entries below differ from those in the screen. The call rests on the fitted dose curve; in most records, active means well fitted inhibition curve with a large enough effect; inconclusive means small, poorly fitted or top-dose-only effect; inactive means flat fitted curve, though single readings scatter. No potency is given beside an inconclusive call; the fits are too rough.

Test: qHTS for Inhibitors of human tyrosyl-DNA phosphodiesterase 1 (TDP1): qHTS in cells in absence of CPT; further: nearly all actives have a fitted effect of over 55% in size
Conditions: DT40 Tdp1-/- hTDP1 cells, no CPT, ATP luminescence, 48 h; activity change, negative = growth inhibition: at 46.2 µM (top of the series)
Summary of the method: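 Readout: luminescence from CellTiter-Glo after 30 min in the dark at RT. Cells: DT40 Tdp1-/- with stable hTDP1, 400/well. Exposure: compounds alone, ≥48 hr, 37 °C.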
On the % scale 0 is the no-effect control and ±100 the full control effect; potency means the concentration at half of the fitted maximal effect; tags describe the fitted curve by direction and shape.

Structure (SMILES)	Potency	activity change, negative = growth inhibition
CC(C)c1ccc(CN(C(=O)c2ccco2)C2CCS(=O)(=O)C2)cc1 (stereo not drawn)	inactive	–
O=C(CC1NCCNC1=O)Nc1ccc2c(c1)OCO2 (stereo not drawn)	inactive	–
CCC(CC)c1nn2c(=O)cc(COc3ccc(NC(=O)c4ccc(C)cc4)cc3)nc2s1	inactive	–
CC(C)C(c1nnnn1Cc1cccs1)N1CCN(c2ccccc2)CC1 (stereo not drawn)	inconclusive [inhibitor, single point]	–
Cc1c(C(=O)Nc2ccc(C(C)C)cc2)sc2nc3n(c(=O)c12)CCC3	active: 20.6 µM	–
COc1ccc(CNC(=O)c2c(-c3c(F)cccc3Cl)noc2C)cc1	inconclusive [inhibitor, single point]	–
O=C(COC(=O)Cc1ccc(Cl)cc1Cl)NCc1ccco1	inconclusive [inhibitor, single point]	–
CCN(CC)S(=O)(=O)c1ccc2[nH]c(=O)cc(C(=O)NCc3ccccc3)c2c1	inactive	–
CCCOc1ccc(-c2nc(C#N)c(N3CCN(CC)CC3)o2)cc1	inconclusive [inhibitor, single point]	–
CCOc1ccccc1C(=O)Nc1ccc(NC(=O)c2ccccc2)cc1	inactive	–
COc1ccc(NC(=O)Cc2ccsc2)cc1S(=O)(=O)N1CCOCC1	inactive	–
Cc1ccc(CNc2ncnc3c2nnn3C)cc1	inconclusive [inhibitor, partial curve]	–
O=C(Nc1nccs1)C1(S(=O)(=O)c2ccc(Cl)cc2)CC1	inactive	–
COc1ccccc1OCC(=O)Nc1nc2c(s1)CCCC2	inconclusive [inhibitor, partial curve, poor fit]	–
O=c1[nH]c2ccccc2nc1-c1cccs1	inactive	–
O=C(CNC(=O)c1ccco1)NCC(=O)OCC(=O)c1ccc(Cl)c([N+](=O)[O-])c1	inconclusive [inhibitor, single point]	–
CC(Oc1ccc(/C=N/NC(=O)Cc2cccc3ccccc23)cc1)C(=O)O (stereo not drawn)	inactive	–
CC(=O)c1sc(NCCOc2ccc(C)cc2)nc1C	active: 14.6 µM	–
Cc1ccc(C(C(=O)NC2CCCC2)N(Cc2ccc3c(c2)OCO3)C(=O)Cc2cccs2)cc1 (stereo not drawn)	inconclusive [inhibitor, single point]	–
CCN(C(=O)c1cc2c(s1)-c1ccccc1S(=O)(=O)C2)c1cc(OC)ccc1OC	inconclusive [inhibitor, single point]	–
CSc1ccc(CCNC(=O)Cn2ccc3cc(S(=O)(=O)N4CCCCCC4)ccc32)cc1	inconclusive [inhibitor, single point]	–
CCN(C(=O)CSc1ncnc2sc(C)c(C)c12)C1CCS(=O)(=O)C1 (stereo not drawn)	inconclusive [inhibitor, single point]	–
Cc1c(Cl)cccc1NC(=O)c1ccc2c(c1)CCN2S(=O)(=O)c1ccccc1	inconclusive [inhibitor, single point]	–
CCNC(=O)NC(=O)c1csc([N+](=O)[O-])c1	inactive	–
CC12CCC(C(N)=O)(c3nc4ccccc4nc31)C2(C)C (stereo not drawn)	inconclusive [inhibitor, single point]	–

Structure (SMILES)	Potency	activity change, negative = growth inhibition
CCN(CC)S(=O)(=O)c1ccc(C(=O)OC2CCCCC2CN(C)C)cc1 (stereo not drawn)	–	inconclusive: -44.8% [inhibitor]
CCCCSc1nnc2c(n1)OC(c1ccc(Br)s1)N(C(C)=O)c1ccccc1-2 (stereo not drawn)	inconclusive [inhibitor, single point]	–
NC1CCN(c2nc3c(cc2F)c(=O)c(C(=O)O)cn3-c2ccc(F)cc2F)C1 (stereo not drawn)	active: 10 µM and active: 11.9 µM and active: 8.2 µM	–
CN(C)c1ccc(C(CNC(=O)c2ccccc2C(F)(F)F)N2CCOCC2)cc1 (stereo not drawn)	inactive	–
O=C(COc1c(Br)cc(Br)c2cccnc12)Nc1ccccc1F	active: 18.4 µM	–
CC1CCCC(C)N1C(=O)CSc1nnc(-c2c[nH]c3ccccc23)o1 (stereo not drawn)	active: 16.4 µM	–
CCn1c(=O)c2ccccc2n(Cc2cccc([N+](=O)[O-])c2)c1=O	inconclusive [inhibitor, partial curve, poor fit]	–
O=C1NC(=S)N/C1=C/c1cc2c(cc1[N+](=O)[O-])OCO2	active: 0.58 µM	–
N#CC/C(N)=N/NC(=O)CCCNc1ncc(C(F)(F)F)cc1Cl	inconclusive [inhibitor, single point]	–
COc1cc(OC)cc(C(=O)NNC(=O)Cc2cccs2)c1	inactive	–
CN(C)CCNc1ncnc2c1cnn2-c1cccc(Cl)c1	inconclusive [inhibitor, single point]	–
COc1cccc(CN2CCN(C(=O)CCc3nnc(C4CCCCC4)o3)CC2=O)c1	inactive	–
O=c1[nH]c(=O)n(-c2ccc(F)cc2)c2c1C(C(F)(F)F)(C(F)(F)F)N=C(c1ccc(F)cc1)N2	active: 3.26 µM	–
O=C1CC(NS(=O)(=O)c2cccnc2)CN1c1cccc(F)c1 (stereo not drawn)	inactive	–
CCOc1nc(NC2CCCCC2)nc(NC(C)(C)C)n1	inconclusive [inhibitor, single point]	–
O=S(=O)(NCC(c1ccco1)N1CCN(c2ccccc2F)CC1)c1ccc(F)cc1 (stereo not drawn)	inconclusive [inhibitor, single point]	–
O=C(NCCN1CCN(C(=O)c2cccc(OC(F)F)c2)CC1)c1cccc(OC(F)F)c1	inactive	–
O=C(NC(=S)Nc1ccccc1N1CCOCC1)c1sc2ccccc2c1Cl	inconclusive [inhibitor, partial curve]	–
Cc1cc(C)c(NC(=O)c2ccc3nccnc3c2)c(C)c1	inconclusive [inhibitor, partial curve]	–
c1ccc2cc(CSCc3nc4ccccc4[nH]3)ccc2c1	inconclusive [inhibitor, partial curve, poor fit]	–
COc1ccc(CNC(=O)C2CCCN(S(=O)(=O)c3cccc4nsnc34)C2)cc1 (stereo not drawn)	active: 23.1 µM	–
CCN(CC)S(=O)(=O)c1ccc(C)c(NC(=O)COc2ccc(Cl)cc2Br)c1	inconclusive [inhibitor, partial curve, poor fit]	–
COc1cccc(/C=C/C(=O)OCC(=O)N2c3ccccc3CC2C)c1OC (stereo not drawn)	inactive	–
CC1(C)CC(=O)C/C(=N\NC(=O)c2cccs2)C1	inconclusive [inhibitor, partial curve]	–
COc1ccc(NC(=O)CCCOc2ccc(Cl)c(C)c2)cc1S(=O)(=O)N1CCOCC1	inconclusive [inhibitor, partial curve, poor fit]	–

Structure (SMILES)	Potency	activity change, negative = growth inhibition
O=C(Nc1ccc(S(=O)(=O)N2CCOCC2)cc1)C1COc2ccccc2O1 (stereo not drawn)	inconclusive [inhibitor, single point]	–
Cc1nn2c(=O)cc(COC(=O)Cc3ccccc3)nc2s1	inactive	–
CCOc1ccccc1-c1noc(CSc2nnc(-c3ccccc3)n2-c2ccc(F)cc2)n1	active: 13 µM	–
COc1ccc(NS(=O)(=O)c2ccc(NS(C)(=O)=O)cc2)cc1	inconclusive [inhibitor, partial curve, poor fit]	–
COc1ccc(CN(CC2CCCO2)C(=O)CN2C(=O)C(C)Oc3ccc(C)cc32)cc1OC (stereo not drawn)	active: 18.4 µM	–
O=C(NCC(c1ccco1)N1CCN(c2ccccc2F)CC1)C(=O)NC1CCCC1 (stereo not drawn)	active: 9.2 µM	–
Cn1c(NCCOc2ccccc2)nc2cc(-c3ccc(F)cc3)sc2c1=O	inconclusive [inhibitor, single point]	–
Cc1ccc(S(=O)(=O)NC(C(=O)N2CCOCCOCCOCCOCC2)C(C)C)cc1 (stereo not drawn)	inactive	–
C=CCn1c(NCc2ccc(OC)cc2O)nc2ccccc21	inconclusive [inhibitor, single point]	–
Cn1nnnc1SCCCNCc1cc(Cl)ccc1OCc1ccc(F)cc1	inconclusive [inhibitor, single point]	–
COC(=O)C1=C(C)Nc2ncnn2C1c1ccc(OC(=O)c2ccccc2)cc1 (stereo not drawn)	inconclusive [inhibitor, single point]	–
COC(=O)c1c(NC(=O)c2nc(SCc3ccc(F)cc3)ncc2Cl)sc2c1CCCC2	inactive	–
Cc1ccc(-c2csc3ncnc(N4CCN(C(=O)c5ccco5)CC4)c23)cc1	inconclusive [inhibitor, partial curve, poor fit]	–
O=C(O)CC1S/C(=N/N=C/c2ccc(-c3ccccc3[N+](=O)[O-])o2)NC1=O (stereo not drawn)	inactive	–
O=C(NCCSc1c(-c2ccccc2)[nH]c2ccccc12)c1cc2ccccc2oc1=O	inconclusive [inhibitor, single point]	–
O=C(c1ccco1)N1CCN(C(=O)c2cnn3c2NC(c2cccs2)CC3C(F)(F)F)CC1 (stereo not drawn)	inactive	–
COCC(=O)Nc1c(C(=O)N2CCCC2)oc2ccccc12	inactive	–
Cc1ccc2nc(/C(C#N)=C/c3ccc(-c4cccc([N+](=O)[O-])c4)o3)[nH]c2c1	inconclusive [inhibitor, full curve, poor fit]	–
CC(C)N(Cc1nccn1C)C(=O)c1ccc2oc(Cc3ccccc3)nc2c1	inconclusive [inhibitor, partial curve]	–
Cc1nn(C)c(C(=O)N/N=C/c2ccc(Br)cc2)c1Cl	inactive	–
Cc1ccccc1S(=O)(=O)Cc1ccc(C(=O)NC(C)c2ccc3c(c2)OCCO3)o1 (stereo not drawn)	inconclusive [inhibitor, partial curve]	–
COC(=O)c1c(C)nc2nonc2c1N	inactive	–
O=C(O)c1cccc(CSc2n[nH]c(-c3ccc(Cl)cc3Cl)n2)c1	inactive	–
